Laboratory results taken from the supplement of paper PMC3334620.
In all, about 33,000 sequences were measured (“E-score (-0.5 to 0.5)”: median about -0.036, highest 2% from about 0.37 on). Some of the results follow.

These sequences were tested against T1, Yer064c (UniProt P40041) (assay: PBM E-score (8-mer binding enrichment) (E-score (-0.5 to 0.5)); higher = stronger / more preferred TF binding; most listed sequences are background and not binding sites). Conditions: protein concentration: 200 nM; construct: GST-full length.
T1 sequence: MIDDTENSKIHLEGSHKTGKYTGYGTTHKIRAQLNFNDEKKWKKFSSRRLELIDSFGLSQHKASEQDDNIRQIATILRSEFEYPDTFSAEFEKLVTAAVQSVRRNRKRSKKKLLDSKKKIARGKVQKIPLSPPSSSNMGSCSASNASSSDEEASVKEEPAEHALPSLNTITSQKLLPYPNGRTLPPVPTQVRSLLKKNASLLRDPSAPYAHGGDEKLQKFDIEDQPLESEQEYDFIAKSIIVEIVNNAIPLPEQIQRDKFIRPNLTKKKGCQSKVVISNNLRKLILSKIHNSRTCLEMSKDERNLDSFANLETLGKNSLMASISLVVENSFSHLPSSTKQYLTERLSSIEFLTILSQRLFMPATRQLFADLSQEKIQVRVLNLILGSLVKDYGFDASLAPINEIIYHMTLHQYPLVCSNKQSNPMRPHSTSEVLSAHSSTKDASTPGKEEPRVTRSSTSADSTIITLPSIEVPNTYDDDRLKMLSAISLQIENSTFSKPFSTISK
Outline: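 For each ungapped eight-base word taken together with its reverse complement, the Universal PBM Analysis Suite assigned an E-score. Binding data came from GST-tagged yeast transcription factors, applied at about 100-200 nM, on universal all-10-mer Agilent arrays made double-stranded by primer extension. Fluorescent anti-GST marked bound protein, and scans were normalised with masliner.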
In the case of AAACAATT, the “PBM E-score” value is reported as 0.199. In the case of TACGCCCA, the “PBM E-score” value is reported as -0.128. For CATCCTTC, the “PBM E-score” value was -0.0835. With CGGTATAG the “PBM E-score” value was -0.0513. In the case of ACAAACCC, the “PBM E-score” value is reported as -0.0685. CACCGGAG was tested, and the “PBM E-score” value was -0.133. For AGGGGAGC, the “PBM E-score” value was -0.142. AACAATAT was tested, and the “PBM E-score” value was 0.16. With GGACGGCC the “PBM E-score” value was -0.188. With CTAATTAA the “PBM E-score” value was 0.0944. For CAGCTCGA, the “PBM E-score” value was -0.0604. In the case of AGTCGCCG, the “PBM E-score” value is reported as 0.36. For AAGTTGTC, the “PBM E-score” value was -0.133. GAAATCAC was tested, and the “PBM E-score” value was 0.347. For AAAATTCT, the “PBM E-score” value was -0.187. CGGGGATC was tested, and the “PBM E-score” value was -0.226. In the case of CTGTTCCC, the “PBM E-score” value is reported as -0.262. In the case of AGTACACG, the “PBM E-score” value is reported as 0.0619. In the case of GACGCGTA, the “PBM E-score” value is reported as -0.15. With AGAAACGG the “PBM E-score” value was -0.193. With GCTGATTA the “PBM E-score” value was 0.392. With CATACTAC the “PBM E-score” value was -0.0608. In the case of GGTAACAA, the “PBM E-score” value is reported as 0.0981. For TACCTGCA, the “PBM E-score” value was -0.163. In the case of ACCCCGCT, the “PBM E-score” value is reported as -0.208. In the case of CACTCGGA, the “PBM E-score” value is reported as 0.0864. With GAGAAAGC the “PBM E-score” value was -0.136. CCAGTTGA was tested, and the “PBM E-score” value was 0.118. With GATAGATC the “PBM E-score” value was -0.00669. AACCACGT was tested, and the “PBM E-score” value was 0.0047. In the case of ACTCCTGA, the “PBM E-score” value is reported as 0.282. With ATGTGGTC the “PBM E-score” value was -0.0215. With TAAGTGCA the “PBM E-score” value was 0.0184. With AATCATAA the “PBM E-score” value was 0.418. In the case of ACCCAAAT, the “PBM E-score” value is reported as -0.00743. For GATAGGGA, the “PBM E-score” value was -0.227. AGACACTA was tested, and the “PBM E-score” value was 0.046. CCGCTACC was tested, and the “PBM E-score” value was -0.245. In the case of ATTCCAAG, the “PBM E-score” value is reported as -0.0431. With ATGTCCCA the “PBM E-score” value was -0.199. In the case of GGATGCTA, the “PBM E-score” value is reported as -0.101. With CGTTGGGC the “PBM E-score” value was -0.14. GAACTCTA was tested, and the “PBM E-score” value was 0.043. In the case of GGAGCGAC, the “PBM E-score” value is reported as 0.103. AGGCTGAT was tested, and the “PBM E-score” value was 0.239. GCTCCCCC was tested, and the “PBM E-score” value was -0.183. For CCAAAAAA, the “PBM E-score” value was 0.0835. For ACCACATA, the “PBM E-score” value was 0.0407. In the case of GTGATCTA, the “PBM E-score” value is reported as 0.124. For CATACGTA, the “PBM E-score” value was 0.0653. With ACGCATCG the “PBM E-score” value was -0.205. In the case of ATAACTCA, the “PBM E-score” value is reported as 0.271. CTCTTTAA was tested, and the “PBM E-score” value was 0.0515. GAACGTAC was tested, and the “PBM E-score” value was 0.0263. TCAATTAA was tested, and the “PBM E-score” value was 0.205. With GGGCATAA the “PBM E-score” value was -0.125. For ACTCTTGA, the “PBM E-score” value was 0.15. In the case of AGGGTAAG, the “PBM E-score” value is reported as 0.164. With TAAACGCA the “PBM E-score” value was -0.0223. In the case of AGATGAAT, the “PBM E-score” value is reported as 0.199. CCGGACTA was tested, and the “PBM E-score” value was 0.103. TCCCACGA was tested, and the “PBM E-score” value was 0.117. For GCTAGGTA, the “PBM E-score” value was -0.126. AGGCTTAC was tested, and the “PBM E-score” value was -0.215. With AAAAACGT the “PBM E-score” value was 0.106. For CGGCATAC, the “PBM E-score” value was -0.116. With AAGTTGTG the “PBM E-score” value was 0.0178. For CACACGAC, the “PBM E-score” value was 0.112. ATTACACG was tested, and the “PBM E-score” value was 0.00797. With AACAAATA the “PBM E-score” value was -0.0688. In the case of GAACTTCA, the “PBM E-score” value is reported as -0.0911. GGTGTCAA was tested, and the “PBM E-score” value was -0.00117. In the case of AGTGCCGA, the “PBM E-score” value is reported as 0.0247. In the case of GAGATAGC, the “PBM E-score” value is reported as -0.259. For CCCGCTAG, the “PBM E-score” value was -0.224. CAGAGTTC was tested, and the “PBM E-score” value was 0.0645. GCTAAAAC was tested, and the “PBM E-score” value was -0.0991. CGCCTCAC was tested, and the “PBM E-score” value was -0.133. In the case of TAGCGTAA, the “PBM E-score” value is reported as 0.0156. AGGACGGG was tested, and the “PBM E-score” value was -0.261. With CTAGCCTA the “PBM E-score” value was 0.0505. For CCTGACGA, the “PBM E-score” value was 0.115. With CGCCCTTC the “PBM E-score” value was -0.212. For GGTACAAC, the “PBM E-score” value was -0.00175. With AGTATTGC the “PBM E-score” value was 0.0131. With CTCTGCGC the “PBM E-score” value was -0.122. CCCTCTCG was tested, and the “PBM E-score” value was -0.226. With CCAGGCAC the “PBM E-score” value was -0.0375. In the case of GAATTTCA, the “PBM E-score” value is reported as -0.0886. With CTCATTGC the “PBM E-score” value was 0.03. In the case of AGCCTCCA, the “PBM E-score” value is reported as -0.245. In the case of ATTAGATA, the “PBM E-score” value is reported as 0.137. With TTCGGAAA the “PBM E-score” value was -0.147. CAACCAAC was tested, and the “PBM E-score” value was -0.0733. For GGGTCAAC, the “PBM E-score” value was 0.189. With TGAGGGCA the “PBM E-score” value was -0.256. For ACATCTAC, the “PBM E-score” value was 0.0328. GGGTTCGA was tested, and the “PBM E-score” value was -0.171. With ATTCCTTG the “PBM E-score” value was -0.00454. In the case of TCCTACCA, the “PBM E-score” value is reported as -0.265. For GCAGTTAA, the “PBM E-score” value was 0.0487. In the case of GAAGGAAA, the “PBM E-score” value is reported as -0.125. With AATATCCC the “PBM E-score” value was -0.178. For ATTAGGGC, the “PBM E-score” value was -0.0516. In the case of ATTGAACC, the “PBM E-score” value is reported as 0.14. With CAAATGCG the “PBM E-score” value was 0.0296. For CATCGTTC, the “PBM E-score” value was 0.115. With AACGTCAG the “PBM E-score” value was -0.141. In the case of AGCCGCAC, the “PBM E-score” value is reported as -0.0979. AACGCTGT was tested, and the “PBM E-score” value was -0.242. In the case of GATCCAGC, the “PBM E-score” value is reported as -0.245. In the case of AAAGAAAC, the “PBM E-score” value is reported as 0.0456. For ATTCTGGC, the “PBM E-score” value was -0.0543. With AAAAATCC the “PBM E-score” value was -0.168. With ACGTGAAG the “PBM E-score” value was -0.0713. With ATGAGCAC the “PBM E-score” value was 0.0261. With CAGCGAGA the “PBM E-score” value was 0.018. With CCACGTAC the “PBM E-score” value was -0.02. In the case of AGCTATAA, the “PBM E-score” value is reported as -0.0153. For CGGGGAAG, the “PBM E-score” value was -0.107. CTTTTTCA was tested, and the “PBM E-score” value was -0.0235. With ATCGTTCA the “PBM E-score” value was 0.049. AGATATAA was tested, and the “PBM E-score” value was -0.0278. For CCAAGACC, the “PBM E-score” value was -0.297. CTAAAGAC was tested, and the “PBM E-score” value was 0.0541. In the case of CCCTAAGA, the “PBM E-score” value is reported as -0.144. With AACCTATT the “PBM E-score” value was -0.135. With AGGGAACG the “PBM E-score” value was -0.369. With ACTGATTG the “PBM E-score” value was 0.202. With TCAGTGAA the “PBM E-score” value was 0.224. ACCTGGCG was tested, and the “PBM E-score” value was -0.277. ATCCACCC was tested, and the “PBM E-score” value was -0.096. For CCATGATC, the “PBM E-score” value was 0.0488. In the case of CAACTGCC, the “PBM E-score” value is reported as -0.0195. For GGCCTAAC, the “PBM E-score” value was -0.166. In the case of GCTAGGGA, the “PBM E-score” value is reported as -0.312. With CTTTGGCC the “PBM E-score” value was -0.102. With CGTTTGGA the “PBM E-score” value was -0.0503. For CACTACAC, the “PBM E-score” value was -0.0592. TAACCGGA was tested, and the “PBM E-score” value was -0.104. With AAGCTGCG the “PBM E-score” value was -0.289. For CGGGCATA, the “PBM E-score” value was -0.155. For TCAACCAA, the “PBM E-score” value was 0.0858. With AATGAGAC the “PBM E-score” value was 0.257. With GTGGTTCA the “PBM E-score” value was 0.257. With TGATGTAA the “PBM E-score” value was 0.0177. With ACCTTGAT the “PBM E-score” value was -0.0676. GAGTAAAC was tested, and the “PBM E-score” value was 0.0375. AGCTCGGG was tested, and the “PBM E-score” value was -0.0421. With GTTAGAAC the “PBM E-score” value was 0.0312. For ATTACGTA, the “PBM E-score” value was 0.0567. For GCGATGTA, the “PBM E-score” value was -0.145. For AATCAGTA, the “PBM E-score” value was 0.234. For AATGCTTC, the “PBM E-score” value was -0.162. AGTACCAG was tested, and the “PBM E-score” value was 0.127. In the case of AGTCTGTG, the “PBM E-score” value is reported as 0.123. GGACGTGA was tested, and the “PBM E-score” value was 0.0222. With ACCTCTGC the “PBM E-score” value was -0.164. AGCATTCC was tested, and the “PBM E-score” value was -0.176. For CAAACCTA, the “PBM E-score” value was -0.174. In the case of CTTTTTTA, the “PBM E-score” value is reported as 0.141. In the case of CAACATAG, the “PBM E-score” value is reported as 0.00635. In the case of TTACCGAA, the “PBM E-score” value is reported as 0.0922. For ACCTACTA, the “PBM E-score” value was -0.0168. For CTATCACA, the “PBM E-score” value was 0.021. For GCTTACCA, the “PBM E-score” value was -0.0173. With ACTGTGAG the “PBM E-score” value was 0.149. For ATTATGCG, the “PBM E-score” value was 0.2. For ATAGGATC, the “PBM E-score” value was -0.0811. In the case of TGATATCA, the “PBM E-score” value is reported as -0.0616. In the case of GCGAACAA, the “PBM E-score” value is reported as 0.0591. With AATGTGGG the “PBM E-score” value was -0.00891.
